Experimental data taken from PubChem BioAssay AID1159614 (National Center for Advancing Translational Sciences (NCATS), 2016).
The whole screen tested about 45,000 compounds, of which about 65 (0.1%) were called active. Calls follow the shape of the dose curve; as a rule, active = well fitted activation curve with a large enough effect; inconclusive = small, poorly fitted or top-dose-only effect; inactive = no such curve, though single readings can be large or run the other way. The list shows a part of the results.

target: Galactocerebrosidase (Homo sapiens) (UniProt P54803); assay: A Novel Cell-Based Assay to Identify Small Molecules for B -Galactocerebrosidase; settings: 145M-Twi-hGALC-G270D cells (Twitcher mouse brain line with human GALC G270D), HMU-beta-Gal fluorescence, 48 h; series mostly up to 57.5 µM; activation: at the top concentration; also: 0% is about no effect; nearly all actives have a fitted effect of over 65% in size
Outline: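 Fluorogenic HMU-b-Gal hydrolysis (0.1 mM final, pH 5.2 citrate-phosphate with 1 mg/mL sodium taurocholate; carbonate stop buffer) measures mutant GALC activity after compound treatment of live 145M-Twi Twitcher brain cells stably carrying human GALC-G270D, with wild-type GALC line alongside; activation sought.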

Sequence of UniProt P54803 (P54803 whole entry, looked up): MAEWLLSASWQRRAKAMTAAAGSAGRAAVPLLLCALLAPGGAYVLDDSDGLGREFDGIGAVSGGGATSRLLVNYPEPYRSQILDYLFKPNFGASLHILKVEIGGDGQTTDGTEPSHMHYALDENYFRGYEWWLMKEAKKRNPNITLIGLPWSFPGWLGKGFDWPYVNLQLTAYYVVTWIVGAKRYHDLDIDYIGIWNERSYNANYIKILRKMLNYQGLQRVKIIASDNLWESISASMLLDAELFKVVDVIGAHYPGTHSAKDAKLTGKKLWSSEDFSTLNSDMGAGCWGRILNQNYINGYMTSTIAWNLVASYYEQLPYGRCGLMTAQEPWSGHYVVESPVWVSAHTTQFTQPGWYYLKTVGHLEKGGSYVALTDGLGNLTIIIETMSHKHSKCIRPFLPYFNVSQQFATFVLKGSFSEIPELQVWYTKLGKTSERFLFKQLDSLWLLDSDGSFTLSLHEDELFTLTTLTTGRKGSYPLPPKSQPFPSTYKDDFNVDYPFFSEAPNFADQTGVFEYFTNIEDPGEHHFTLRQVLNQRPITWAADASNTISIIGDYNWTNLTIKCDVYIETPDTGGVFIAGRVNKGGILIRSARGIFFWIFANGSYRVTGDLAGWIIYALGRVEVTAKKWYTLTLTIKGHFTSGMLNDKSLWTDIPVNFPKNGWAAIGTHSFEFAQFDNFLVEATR

activation, inactive:
CCC(C(=O)Nc1cc(OC)cc(OC)c1)n1nc(-c2ccc(C)c(C)c2)ccc1=O (configuration not stated) -17.2%
Cc1nc2scc(C)n2c(=O)c1S(=O)(=O)Nc1ccc(N2CCOCC2)c(Cl)c1 -46.8%
CCOc1ccc(-c2nc(CSCC(=O)N3CCN(c4ccc(F)cc4)CC3)c(C)o2)cc1 -29.4%
C1CCN2C[C@@H]3C[C@@H](CN4CCCC[C@@H]34)[C@H]2C1 -8.87%
CCOc1ccc(C(=O)NCCn2cc(SCC(=O)Nc3ccc4c(c3)OCCO4)c3ccccc32)cc1 5.24%
COc1cc(NC(=O)Cn2c(=O)n(Cc3ccco3)c(=O)c3sc4ccccc4c32)cc(OC)c1 -17.2%
COCCCNc1oc(/C=C/c2cc(OC)c(OC)c(OC)c2)nc1C#N -12.6%
CCN(CC)C(=O)c1sc2c(c1C)c(=O)n(-c1ccc(Cl)c(Cl)c1)c(=O)n2Cc1ccccc1C#N 12.1%
Cc1cc(-c2ccc(C)c(S(=O)(=O)N3CCN(c4cccc(C(F)(F)F)c4)CC3)c2)on1 -19.8%
Cc1cccc(CCNC(=O)c2ccc3c(c2)N(Cc2ccccc2F)C(=O)c2ccccc2S3)c1 -8.32%
Cc1ccc(Oc2c(C(F)(F)F)oc3c(CN4CCC(C)CC4)c(O)ccc3c2=O)cc1 -13.6%
CCc1cccc(NC(=O)CCC(=O)N2CCSc3ccccc32)c1 -3.93%
CN(C)c1ccc(-c2nc(-c3cc4cc(Cl)ccc4oc3=O)cs2)cc1 -2.27%
Cc1ccc(N2CCN(C(=O)c3c(C)oc4ncn(CC(C)C)c(=O)c34)CC2)c(C)c1 -16.4%
Cc1ccc(C)c(N2CCN(C(=O)C3CCN(c4nc5ccc(C)cc5[nH]4)CC3)CC2)c1 -1.8%
Cc1cccc(NC(=O)CSc2ncc3c(n2)-c2ccccc2N(Cc2ccc(F)cc2)S3(=O)=O)c1C -13.2%
CC(=O)N1CCCc2cc(S(=O)(=O)N3CCC(C(=O)Nc4cccc(Cl)c4C)CC3)ccc21 -16.7%
Cc1cc2ccccc2n1-c1ccc(C(=O)N2CCC(C(=O)NCc3ccc(Cl)cc3)CC2)s1 -3.5%
CCN(CC)C(=O)c1c(-c2ccccc2)c(-c2ccccc2)nn(C)c1=O -4.22%
CCc1ccc(C(=O)c2cn(CC(=O)Nc3cc(C)ccc3C)c3nc(C)ccc3c2=O)cc1 13.1%
O=C(CSc1nnc(-c2cccs2)o1)Oc1ccccc1 10.5%
COc1ccc(N2CCN(C(=O)CCn3nc(C)c(S(=O)(=O)N4CCCC4)c3C)CC2)cc1 9.19%
O=C(Cn1ncc2c3ccccc3n(Cc3ccc(Cl)cc3)c2c1=O)NCc1ccccn1 -8.06%
NC(=O)c1ccccc1NC(=O)c1ccc(-c2ccc(Br)cc2)o1 -21%
COC(=O)c1cc(S(=O)(=O)N2CCN(c3cccc(C)c3)C(C)C2)cn1C (configuration not stated) -13.2%
O=C(CSc1nnc(-c2ccccc2)o1)c1cccc([N+](=O)[O-])c1 -14.7%
CCN(CC)CCCNC(=O)c1ccc(-c2nc(CN3CCc4ccccc43)c(C)o2)cc1 -14.7%
CCOC(=O)c1c(C)[nH]c(CCC(=O)NCc2ccc(CC)cc2)c1C -8.24%
CC(=O)c1cccc(NC(=O)Cn2nc(C)n3cccc3c2=O)c1 5.89%
CCN(CC)CCCNC(=O)c1ccc2c(=O)n(CCc3ccccc3)c(=O)[nH]c2c1 -11.1%
CCOc1ccc(C(=O)Nc2ccc3nc(SCCOc4ccccc4)sc3c2)cc1 -12.8%
CCc1ccc(-n2cnc3cc(C(=O)NCc4ccc(C)cc4)ccc32)cc1 -21.7%
COc1ccc(S(=O)(=O)NCCc2csc(-c3ccc(F)cc3)n2)cc1 -6.37%
Cc1cc(C)cc(OCC(=O)Nc2ccc(S(=O)(=O)Nc3onc(C)c3C)cc2)c1 7.66%
O=C(CSC1=Nc2ccccc2C2=NC(Cc3ccccc3)C(=O)N12)Nc1ccccc1F (configuration not stated) -4.74%
CCOC(=O)NC1(C(F)(F)F)NC(=O)N(c2ccc(C)c(C)c2)C1=O (configuration not stated) 15%
CCc1ccc(-n2nc(C)c3c(C(=O)Nc4cc(OC)cc(OC)c4)cc(C)nc32)cc1 -9.83%
CCOc1ccc(-c2nc(SCC(=O)NCCOC)c(-c3ccc(OC)c(OC)c3)[nH]2)cc1 -21.5%
Cc1cc(C)cc(NC(=O)CSc2nc(-c3cccc(Cl)c3)nc3c2Cc2c(CO)cnc(C)c2O3)c1 -6.04%
CSc1nc2sc3c(c2c(=O)n1-c1ccc(F)c(Cl)c1)CCN(C(C)=O)C3 -11.6%
Cc1ccccc1NC(=O)CSC1=Nc2ccccc2C2=NC(CCC(=O)NCc3ccccc3)C(=O)N12 (configuration not stated) -19.2%
Cc1nn(CC(=O)NCc2ccccc2Cl)c(=O)c2nn(-c3ccccc3)c(C)c12 -4.02%
Cc1nc(CC(=O)Nc2ccc(N(C)C)cc2)cs1 -6.46%
COc1ccc(-n2nc(C(=O)Nc3cccc(C(F)(F)F)c3)c3c4ccccc4n(C)c3c2=O)cc1 -12.6%
CCCCn1cc(S(=O)(=O)c2ccc(OC)cc2)c(=O)c2cc(F)c(N3CCCC3)cc21 -16.1%
Cc1ccc(-c2nc(C)c(CCNS(=O)(=O)c3ccccc3F)s2)cc1 -39.4%
Cc1cc(C)cc(N2C(=O)N(CC(=O)c3ccc(Br)cc3)c3ccccc3S2(=O)=O)c1 -9.5%
O=S(=O)(NCc1cccc(Br)c1)c1ccc(-c2cc(C(F)(F)F)on2)s1 -14.1%
COc1ccccc1CNC(=O)CN1C(=O)COc2ccc(S(=O)(=O)N3CCCCC3)cc21 -8.66%
CCN(CC)C(=O)c1sc2c(c1C)c(=O)n(-c1ccc(Cl)c(Cl)c1)c(=O)n2Cc1cc(=O)n2c(C)cccc2n1 -5.78%
COc1ccc(C(=O)Nc2ccc3nc(SCC(=O)N4CCCc5ccccc54)sc3c2)cc1 0.11%
COC(=O)c1sccc1S(=O)(=O)N(CC(=O)NCc1ccc(C)cc1)c1ccc(Cl)cc1 4.71%
Cc1cccc(NC(=O)N2CCC(CN3CCc4ccccc4C3)CC2)c1C -7.89%
CN1C(=O)C(C)(C)c2cc(S(=O)(=O)NCc3ccc(C(=O)Nc4ccc(Cl)cc4)cc3)ccc21 -7.21%
CCOc1ccc(NC(=O)Cn2cc(C(=O)c3ccc(C)c(C)c3)c(=O)c3cc4c(cc32)OCCO4)cc1 -0.195%
CCOC(=O)c1cccc(NC(=O)CN2C(=O)CC(C)(C)Sc3ccccc32)c1 -8.23%
Cc1ccc(C(=O)Nc2c(C(=O)NCc3ccc(Cl)cc3)sc3nc(C)cc(C)c23)cc1 -8.7%
Cc1ccc(Nc2c(-c3ccc(N4CCOCC4)cc3)nc3ncccn23)cc1 -19.9%
Cc1cccc(C)c1OCc1nc2c3cnn(-c4cccc(F)c4)c3ncn2n1 -14.9%
COc1ccc(CCNC(=O)CCCn2c(=O)c3ccccc3n(Cc3ccccc3C)c2=O)cc1OC -2.63%
Cc1ccc(-n2ncc(C(=O)NCCN3CCc4ccccc4C3)c2C2CCN(C(=O)OC(C)(C)C)CC2)cc1 -5.16%
CCOC(=O)c1cc(S(=O)(=O)N2CCN(c3ccc(OC)cc3)CC2)[nH]n1 -1.41%
Cc1ccc(CNC(=O)c2c3c(nc4ccccc24)C(=O)N(C2CCCCC2)C3)cc1 -20.1%
COc1cc(C2CC(=O)c3c([nH]c(C(=O)OC4CCCCC4)c3C)C2)cc(OC)c1OC (configuration not stated) -16.7%
CCN1CCN(c2cc3c(cc2F)c(=O)c(C(=O)O)cn3C2CC2)CC1 -0.764%
CCCN(C(=O)CCc1nc(-c2ccccc2F)no1)c1ccc(CC)cc1 -12.2%
COc1ccc(NC(=O)c2cc3c(=O)[nH]c4ccccc4c3n2C)cc1Cl -3.23%
Cc1ccc(C)c(N2CCN(C(=O)c3ccc(CS(=O)(=O)c4ccc(Br)cc4)o3)CC2)c1 -9.18%
CCOc1cc2[nH]c(=O)n(Cc3ccc(C(=O)NCCN(CC)CC)cc3)c(=O)c2cc1OCC -12.9%
Cc1ccccc1NC(=O)c1sc2nc3c(cc2c1N)CCCC3 -3.75%
COc1ccc(CC(=O)NCc2nc3cccnc3n2Cc2ccc(F)cc2)cc1OC -9.41%
COc1ccc(Cl)cc1NC(=O)CSc1nccn1Cc1ccco1 -12.7%
CCc1ccc(CN2C(=O)c3ccccc3C2C(=O)NCCc2ccc(OC)c(OC)c2)cc1 (configuration not stated) -11.3%
CN(CC(=O)Nc1cccc(C(F)(F)F)c1)S(=O)(=O)c1ccc2[nH]c3c(c2c1)CCCC3 -12.7%
COc1cccc(NC(=O)CSc2nc3ccccc3nc2N2CCOCC2)c1 -19%
Cc1csc2nc(COC(=O)c3ccccc3NC(=O)c3ccc(F)cc3)cc(=O)n12 -1.77%
CCC(Sc1nncn2c1cc1occc12)C(=O)Nc1ccc(C)c(Cl)c1 (configuration not stated) -8.92%
Cc1ccc(C(=O)NCC(c2cccs2)S(=O)(=O)c2cccs2)cc1 (configuration not stated) -7.33%
CCN(C(=O)CSc1nc2ccccc2n1Cc1cc(C)ccc1C)c1ccccc1 -42.3%
Cc1c2cnn(CC(=O)NC(C)C)c(=O)c2c(C)n1Cc1ccccc1Cl -8.56%
COc1ccccc1/C=C/c1nc(C#N)c(N(C)C)o1 -20.9%
CCOC(=O)N1CCc2c(sc3c2c(=O)n(-c2ccc(CC)cc2)c(=O)n3CC(=O)c2ccc(F)cc2)C1 -3.25%
Cc1c2cnn(CC(=O)Nc3cccc(C(F)(F)F)c3)c(=O)c2c(C)n1Cc1ccccc1Cl -12.6%
COc1cc(C(=O)Nc2ccc3nc(SCc4ccccc4)sc3c2)cc(OC)c1OC -12.5%
CCCNC(=O)C1CCC(Cn2c(=O)c3sccc3n(CC(=O)N3CCC(C)CC3)c2=O)CC1 (configuration not stated) -8.48%
Cc1cccc(OCC(=O)N(Cc2sccc2C)C2CCS(=O)(=O)C2)c1 (configuration not stated) -10.4%
COc1ccc(N2CCN(C(=O)c3ccc(-c4nc(COc5ccccc5)c(C)o4)cc3)CC2)cc1 -14.9%
COc1cccc(C2C(C(=O)Nc3ccc(C)cc3C)=C(C)Nc3c(C(=O)Nc4cccc(C)c4)cnn32)c1OC (configuration not stated) -14.9%
COc1cccc(N2CCN(C3C(=O)c4ccccc4N3C(C)=O)CC2)c1 (configuration not stated) -11.5%
CCOc1ccc(OCC)c(NC(=O)CN(C)S(=O)(=O)c2ccc3c(c2)CCCC(=O)N3)c1 -6.76%
O=C(Cn1nc(-c2ccc(Cl)cc2)ccc1=O)NCc1ccccc1Cl -15.1%
COc1ccc(N2CCN(C(=O)c3nc(SC)ncc3Cl)CC2)cc1 -12.5%
